Columns and labels:
CD98 on FaDu cells = biological target: T1, CD98 on FaDu cells (human, UniProt P08195 2-529); experiment: cell-based or functional assay
T1 sequence (looked up): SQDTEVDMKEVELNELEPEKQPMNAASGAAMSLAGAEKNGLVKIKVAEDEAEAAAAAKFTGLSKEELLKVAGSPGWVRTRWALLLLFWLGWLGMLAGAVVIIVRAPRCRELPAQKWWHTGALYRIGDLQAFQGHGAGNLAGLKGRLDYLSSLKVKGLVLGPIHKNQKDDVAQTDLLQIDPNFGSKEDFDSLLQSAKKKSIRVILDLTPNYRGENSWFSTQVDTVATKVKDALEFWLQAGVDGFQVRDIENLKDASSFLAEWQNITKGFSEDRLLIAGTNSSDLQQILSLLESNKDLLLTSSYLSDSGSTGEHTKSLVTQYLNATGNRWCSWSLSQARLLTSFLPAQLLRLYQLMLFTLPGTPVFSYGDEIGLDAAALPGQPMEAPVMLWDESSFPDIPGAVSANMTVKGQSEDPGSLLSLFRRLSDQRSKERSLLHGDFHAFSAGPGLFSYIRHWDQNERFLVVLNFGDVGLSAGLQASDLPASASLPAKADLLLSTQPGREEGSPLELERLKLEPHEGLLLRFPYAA

[1] = biological target: T2, biotinylated human CD98 antigen (human, UniProt P08195 105-529, biotinylated with EZ-Link NHS-PEG4-Biotin (ELISA)); experiment: ELISA, immobilised biotinylated human CD98 antigen, chemiluminescence; pH 7.5
T2 construct: extracellular domain
T2 sequence (looked up): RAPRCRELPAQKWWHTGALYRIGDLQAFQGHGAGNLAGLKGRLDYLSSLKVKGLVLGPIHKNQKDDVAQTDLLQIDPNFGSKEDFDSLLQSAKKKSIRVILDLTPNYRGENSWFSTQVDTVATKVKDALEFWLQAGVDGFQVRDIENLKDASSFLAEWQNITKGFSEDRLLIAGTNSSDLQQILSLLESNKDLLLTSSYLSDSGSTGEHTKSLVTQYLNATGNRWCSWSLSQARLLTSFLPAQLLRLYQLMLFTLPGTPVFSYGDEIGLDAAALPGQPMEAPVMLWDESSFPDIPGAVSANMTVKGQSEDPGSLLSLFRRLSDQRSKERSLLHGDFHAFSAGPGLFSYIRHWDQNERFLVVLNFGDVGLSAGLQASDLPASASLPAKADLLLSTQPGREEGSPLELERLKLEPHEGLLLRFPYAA

[2] = biological target: T2, biotinylated human CD98 antigen; experiment: ELISA, immobilised biotinylated human CD98 antigen, chemiluminescence; pH 5.5
[3] = biological target: T2, biotinylated human CD98 antigen; experiment: ELISA on immobilised biotinylated human CD98 antigen, pH 5.5
[4] = biological target: T2, biotinylated human CD98 antigen; experiment: ELISA pH 7.5 against pH 5.5

B1: MhM1024-M1-DXd-ADC (antibody, human IgG1, kappa)
heavy: QVQLVQSGAEVKKPGASVKVSCKASGAAFSNYLIEWVRQAPGQGLEWMGVINPGSGVTNYNEKFKGRVTITADTSTSTAYMELSSLRSEDTAVYYCARAEAWFAYWGQGTLVTVSSASTKGPSVFPLAPSSKSTSGGTAALGCLVKDYFPEPVTVSWNSGALTSGVHTFPAVLQSSGLYSLSSVVTVPSSSLGTQTYICNVNHKPSNTKVDKRV[human IgG1 Fc not spelt out]
light: GNFYHQYPWPLEILGSGGGGSGHHHGGHHHGGHHHGGSDIVMTQSPDSLAVSLGERATINCKSSQSLLYSSNQKNYLAWYQQKPGQPPKLLIYWASTRESGVPDRFSGSGSGTDFTLTISSLQAEDVAVYYCQRYYGYPWTFGQGTKVEIKRTVAAPSVFIFPPSDEQLKSGTASVVCLLNNFYPREAKVQWKVDNALQSGNSQESVTEQDSKDSTYSLSSTLTLSKADYEKHKVYACEVTHQGLSSPVTKSFNRGEC
modifications: Linker 1 (DXd drug linker) on cysteines of reduced disulfide bonds between antibody chains; Linker 1 (DXd drug linker) on cysteines of reduced disulfide bonds between antibody chains; average number of drugs bound 7.2 per antibody
in vitro growth inhibitory activity on FaDu cells, EC50 ratio (pH 7.4/pH 5.5) (CD98 on FaDu cells): 10.9

B2: MhM1018-M1-DXd-ADC (antibody, human IgG1, kappa)
heavy: QVQLVQSGAEVKKPGASVKVSCKASGAAFSNYLIEWVRQAPGQGLEWMGVINPGSGVTNYNEKFKGRVTITADTSTSTAYMELSSLRSEDTAVYYCARAEAWFAYWGQGTLVTVSSASTKGPSVFPLAPSSKSTSGGTAALGCLVKDYFPEPVTVSWNSGALTSGVHTFPAVLQSSGLYSLSSVVTVPSSSLGTQTYICNVNHKPSNTKVDKRV[human IgG1 Fc not spelt out]
light: GNFYHQYPWPLEILGSGSGGGGSGGGGSGGGGSGGSDIVMTQSPDSLAVSLGERATINCKSSQSLLYSSNQKNYLAWYQQKPGQPPKLLIYWASTRESGVPDRFSGSGSGTDFTLTISSLQAEDVAVYYCQRYYGYPWTFGQGTKVEIKRTVAAPSVFIFPPSDEQLKSGTASVVCLLNNFYPREAKVQWKVDNALQSGNSQESVTEQDSKDSTYSLSSTLTLSKADYEKHKVYACEVTHQGLSSPVTKSFNRGEC
modifications: Linker 1 (DXd drug linker) on cysteines of reduced disulfide bonds between antibody chains; Linker 1 (DXd drug linker) on cysteines of reduced disulfide bonds between antibody chains; average number of drugs bound 7.4 per antibody
in vitro growth inhibitory activity on FaDu cells, EC50 ratio (pH 7.4/pH 5.5) (CD98 on FaDu cells): 2.8

B3: anti-CD98 masked antibody MhM1024-M1 (antibody)
heavy: QVQLVQSGAEVKKPGASVKVSCKASGAAFSNYLIEWVRQAPGQGLEWMGVINPGSGVTNYNEKFKGRVTITADTSTSTAYMELSSLRSEDTAVYYCARAEAWFAYWGQGTLVTVSSASTKGPSVFPLAPSSKSTSGGTAALGCLVKDYFPEPVTVSWNSGALTSGVHTFPAVLQSSGLYSLSSVVTVPSSSLGTQTYICNVNHKPSNTKVDKRV[human IgG1 Fc not spelt out]
light: GNFYHQYPWPLEILGSGGGGSGHHHGGHHHGGHHHGGSDIVMTQSPDSLAVSLGERATINCKSSQSLLYSSNQKNYLAWYQQKPGQPPKLLIYWASTRESGVPDRFSGSGSGTDFTLTISSLQAEDVAVYYCQRYYGYPWTFGQGTKVEIKRTVAAPSVFIFPPSDEQLKSGTASVVCLLNNFYPREAKVQWKVDNALQSGNSQESVTEQDSKDSTYSLSSTLTLSKADYEKHKVYACEVTHQGLSSPVTKSFNRGEC
notes: His cluster linker; Full-length entries
EC50 (read off the curve) [1]: ~30 nM | EC50 (read off the curve) [2]: ~2 nM

B4: anti-CD98 masked antibody MhM1043-M1 (antibody)
heavy: QVQLVQSGAEVKKPGASVKVSCKASGAAFSNYLIEWVRQAPGQGLEWMGVINPGSGVTNYNEKFKGRVTITADTSTSTAYMELSSLRSEDTAVYYCARAEAWFAYWGQGTLVTVSSASTKGPSVFPLAPSSKSTSGGTAALGCLVKDYFPEPVTVSWNSGALTSGVHTFPAVLQSSGLYSLSSVVTVPSSSLGTQTYICNVNHKPSNTKVDKRV[human IgG1 Fc not spelt out]
light: GNFYHQYPWPLEILGSGGGGSGGGHHHGGHHHGRHHHGGSDIVMTQSPDSLAVSLGERATINCKSSQSLLYSSNQKNYLAWYQQKPGQPPKLLIYWASTRESGVPDRFSGSGSGTDFTLTISSLQAEDVAVYYCQRYYGYPWTFGQGTKVEIKRTVAAPSVFIFPPSDEQLKSGTASVVCLLNNFYPREAKVQWKVDNALQSGNSQESVTEQDSKDSTYSLSSTLTLSKADYEKHKVYACEVTHQGLSSPVTKSFNRGEC
notes: Arg near the His cluster; Full-length entries
EC50 (read off the curve) [3]: ~3 nM | Comparison of EC50 ratio (neutral pH/acidic pH, relative to MhM1026-M1 designated as 1) [4]: 4

B5: anti-CD98 masked antibody MhM1028-M1 (antibody)
heavy: QVQLVQSGAEVKKPGASVKVSCKASGAAFSNYLIEWVRQAPGQGLEWMGVINPGSGVTNYNEKFKGRVTITADTSTSTAYMELSSLRSEDTAVYYCARAEAWFAYWGQGTLVTVSSASTKGPSVFPLAPSSKSTSGGTAALGCLVKDYFPEPVTVSWNSGALTSGVHTFPAVLQSSGLYSLSSVVTVPSSSLGTQTYICNVNHKPSNTKVDKRV[human IgG1 Fc not spelt out]
light: GNFYHQYPWPLEILGSGGGGSGGGHHHGRHHHGGHHHGGSDIVMTQSPDSLAVSLGERATINCKSSQSLLYSSNQKNYLAWYQQKPGQPPKLLIYWASTRESGVPDRFSGSGSGTDFTLTISSLQAEDVAVYYCQRYYGYPWTFGQGTKVEIKRTVAAPSVFIFPPSDEQLKSGTASVVCLLNNFYPREAKVQWKVDNALQSGNSQESVTEQDSKDSTYSLSSTLTLSKADYEKHKVYACEVTHQGLSSPVTKSFNRGEC
notes: as for B4
EC50 (read off the curve) [3]: ~2 nM | Comparison of EC50 ratio (neutral pH/acidic pH, relative to MhM1026-M1 designated as 1) [4]: 5.2

B6: anti-CD98 masked antibody MhM1018-M1 (antibody)
heavy: QVQLVQSGAEVKKPGASVKVSCKASGAAFSNYLIEWVRQAPGQGLEWMGVINPGSGVTNYNEKFKGRVTITADTSTSTAYMELSSLRSEDTAVYYCARAEAWFAYWGQGTLVTVSSASTKGPSVFPLAPSSKSTSGGTAALGCLVKDYFPEPVTVSWNSGALTSGVHTFPAVLQSSGLYSLSSVVTVPSSSLGTQTYICNVNHKPSNTKVDKRV[human IgG1 Fc not spelt out]
light: GNFYHQYPWPLEILGSGSGGGGSGGGGSGGGGSGGSDIVMTQSPDSLAVSLGERATINCKSSQSLLYSSNQKNYLAWYQQKPGQPPKLLIYWASTRESGVPDRFSGSGSGTDFTLTISSLQAEDVAVYYCQRYYGYPWTFGQGTKVEIKRTVAAPSVFIFPPSDEQLKSGTASVVCLLNNFYPREAKVQWKVDNALQSGNSQESVTEQDSKDSTYSLSSTLTLSKADYEKHKVYACEVTHQGLSSPVTKSFNRGEC
notes: No His cluster; Full-length entries
EC50 (read off the curve) [1]: ~100 nM | EC50 (read off the curve) [2]: ~80 nM

B7: anti-CD98 masked antibody MhM1042-M1 (antibody)
heavy: QVQLVQSGAEVKKPGASVKVSCKASGAAFSNYLIEWVRQAPGQGLEWMGVINPGSGVTNYNEKFKGRVTITADTSTSTAYMELSSLRSEDTAVYYCARAEAWFAYWGQGTLVTVSSASTKGPSVFPLAPSSKSTSGGTAALGCLVKDYFPEPVTVSWNSGALTSGVHTFPAVLQSSGLYSLSSVVTVPSSSLGTQTYICNVNHKPSNTKVDKRV[human IgG1 Fc not spelt out]
light: GNFYHQYPWPLEILGSGGGGSGGRHHHGGHHHGGHHHGGSDIVMTQSPDSLAVSLGERATINCKSSQSLLYSSNQKNYLAWYQQKPGQPPKLLIYWASTRESGVPDRFSGSGSGTDFTLTISSLQAEDVAVYYCQRYYGYPWTFGQGTKVEIKRTVAAPSVFIFPPSDEQLKSGTASVVCLLNNFYPREAKVQWKVDNALQSGNSQESVTEQDSKDSTYSLSSTLTLSKADYEKHKVYACEVTHQGLSSPVTKSFNRGEC
notes: as for B4
EC50 (read off the curve) [3]: ~2 nM | Comparison of EC50 ratio (neutral pH/acidic pH, relative to MhM1026-M1 designated as 1) [4]: 4.3

Reference: patent publication US20250170255A1 (Daiichi Sankyo, published 2025)
